The campaign covered roughly 310,000 compounds. About 14,000 (4.5%) showed an effect of 50% or more. Effects have a minus sign here. The list shows a part of the results.
Target: human ether-à-go-go-related gene (hERG) potassium channel (human, UniProt Q12809)
Experiment: primary screen, population patch clamp on CHO cells stably expressing hERG
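Note: peak tail current of the secondary pulse compared with the same well before compound.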

Chain of human ether-à-go-go-related gene (hERG) potassium channel (Q12809 whole entry, looked up): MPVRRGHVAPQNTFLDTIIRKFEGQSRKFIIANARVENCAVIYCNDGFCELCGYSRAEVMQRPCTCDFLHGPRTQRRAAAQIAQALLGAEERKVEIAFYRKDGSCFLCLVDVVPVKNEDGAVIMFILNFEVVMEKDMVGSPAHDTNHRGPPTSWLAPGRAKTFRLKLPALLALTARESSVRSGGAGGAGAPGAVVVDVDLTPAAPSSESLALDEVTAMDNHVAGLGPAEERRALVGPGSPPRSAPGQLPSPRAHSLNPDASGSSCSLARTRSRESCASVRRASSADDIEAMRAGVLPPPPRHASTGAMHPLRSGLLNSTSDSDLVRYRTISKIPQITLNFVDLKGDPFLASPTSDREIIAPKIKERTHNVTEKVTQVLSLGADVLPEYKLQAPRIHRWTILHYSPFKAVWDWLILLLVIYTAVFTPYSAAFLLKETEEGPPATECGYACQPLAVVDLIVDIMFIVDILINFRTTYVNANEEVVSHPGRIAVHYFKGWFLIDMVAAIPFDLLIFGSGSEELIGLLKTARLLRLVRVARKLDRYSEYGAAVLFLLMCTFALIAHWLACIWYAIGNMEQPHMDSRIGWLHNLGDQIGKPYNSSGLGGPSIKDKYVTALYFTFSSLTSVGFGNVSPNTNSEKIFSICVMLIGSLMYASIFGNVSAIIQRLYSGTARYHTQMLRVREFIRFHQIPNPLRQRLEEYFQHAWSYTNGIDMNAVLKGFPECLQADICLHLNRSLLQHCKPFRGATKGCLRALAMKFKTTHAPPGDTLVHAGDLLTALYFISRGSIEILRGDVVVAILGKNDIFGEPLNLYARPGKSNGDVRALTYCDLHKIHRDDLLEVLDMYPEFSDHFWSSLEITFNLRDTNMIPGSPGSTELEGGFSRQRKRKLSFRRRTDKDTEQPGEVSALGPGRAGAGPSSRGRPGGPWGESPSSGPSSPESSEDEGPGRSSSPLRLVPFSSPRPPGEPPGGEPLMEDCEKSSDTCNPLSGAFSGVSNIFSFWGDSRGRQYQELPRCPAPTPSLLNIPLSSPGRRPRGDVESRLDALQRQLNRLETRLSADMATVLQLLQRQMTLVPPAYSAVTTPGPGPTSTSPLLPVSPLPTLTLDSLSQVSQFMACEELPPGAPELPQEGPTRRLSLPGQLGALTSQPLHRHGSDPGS

SMILES	hERG current change (%, negative = inhibition) at 10uM [%]
CNC(=S)N1CCn2cccc2C1c1cccnc1 (centres unmarked)	6.45
COc1ccc(C(=O)NC23CC4CC(CC(C4)C2)C3)cc1OC	17.4
C=CCOC(=O)C1=C[C@@H](c2ccc3c(c2)OCO3)C[C@@H](OCc2ccc(CO)cc2)O1	5.22
COc1cc2cc(CN(CCO)C(=O)c3cccs3)c(=O)[nH]c2cc1OC	-1.16
Cc1cccc(C)c1NC(=O)C1CCCN1S(=O)(=O)c1ccccc1 (centres unmarked)	4.4
CC(C)CNC(=S)NC(=O)c1csc([N+](=O)[O-])c1	9.85
CC(=O)Nc1cnn(Cc2ccc(Br)cc2)c1	5.7
CCOC(=O)C1CCN(C(=O)COc2ccc3c(c2)OCO3)CC1	1.91
COc1ccccc1Nc1nc(N)nc(CN2CCCCC2)n1	-54.9
NS(=O)(=O)c1ccc(NNC(=O)c2ccc(F)cc2F)cc1	10.8
O=C1C2C3C=CC(C3)C2C(=O)N1CCCCCCN1C(=O)C2C3C=CC(C3)C2C1=O (centres unmarked)	21.2
O=C(COc1cc(Cl)c(Cl)cc1Cl)Nn1cnnc1	-5.37
Cc1cccc(NC(=O)c2ccccc2NC(=O)C2CCCCC2)c1C	1.16
O=C(c1ccc(Cl)cc1)N1CCC(O)(CSc2ccccc2)CC1	-38.1
CC1CCN(C(=O)Cn2c3ccc(F)cc3c3nc4n(c(=O)c32)CCCS4)CC1	11.1
CC(C)Sc1cc(N2CCCC2)nc(-c2ccccc2Cl)n1	5.42
O=C1C2CCc3ccccc3C2N1c1ccccc1 (centres unmarked)	-1.68
Cc1ccc(C)c(N2C(=O)c3cc(N4CCOCC4)c([N+](=O)[O-])cc3C2=O)c1	6.65
CCOc1ccc(NC(=O)c2c(O)[nH]c(=O)[nH]c2=O)cc1	7.25
O=C(CCCCC(=O)NC1CCCC1)NC1CCCC1	5.31
CCN(CC)CCCCCC(=O)Nc1ccccc1C(=O)Nc1ccccc1	-55.8
CC(=O)CC1(OC(C)=O)C(=O)N(C)c2ccccc21 (centres unmarked)	1.45

SMILES	hERG current change (%, negative = inhibition) at 10uM [%]
CCOC(=O)N1CCN(S(=O)(=O)c2ccc(C(=O)Nc3nnc(CC)o3)cc2)CC1	2.69
COC(=O)c1c(NC(=O)CN2CCN(c3ccccc3OC)CC2)c2cc(C)ccc2n1C	7.82
Cc1ccc(-c2cc(-c3ccccc3)no2)c(O)c1	17.4
C=CCN(Cc1cn(C)nc1-c1cccc(Cl)c1)C1CCS(=O)(=O)C1 (centres unmarked)	6.11
COc1ccc(-c2cc3c(=O)n(CC(=O)NCc4ccccc4F)ncn3n2)cc1	18.8
CCOC(=O)C1(CCOc2ccccc2)CCN(Cc2ccc(NC(C)=O)cc2)CC1	-79.3
Cc1ccc(CN(N=Nc2nonc2N)c2nonc2N)c(C)c1	9.68
Cc1cc2c(c(=O)o1)C(c1cccs1)C(C#N)=C(N)O2 (centres unmarked)	4
COc1ccccc1-n1c(C)c2c(OC)cccc(=O)c2c1C	-8.43
Nc1n[nH]c(=S)n1-c1ccc(Cl)cc1	19.3
C[C@@]12C(=O)N(CCc3c[nH]c4ccccc34)CC(=O)N1[C@H]1c3ccccc3OC[C@@H]1[C@@H]2c1ccccc1	-0.34
Cc1ccc(C(=O)Oc2ccc(-c3nnco3)cc2)o1	0.0336
CCCC[C@@H]1CNC(=S)N1CCc1cccc2ccccc12	2
COc1nccnc1NS(=O)(=O)c1ccc(N/C=C2\CCCCC2=O)cc1	16.6
CCc1ccc(C2=NN(CCC(=O)NCC3CCCO3)C(=O)CC2)cc1 (centres unmarked)	12.8
Cc1nc(N2CCN(S(=O)(=O)c3ccc(F)cc3)CC2)c2c(C)c(C)sc2n1	-6.58
COC(=O)c1sccc1NC(=O)Nc1ccc(OC)c(OC)c1	-40.7
COc1ccc(S(=O)(=O)N2CC(C)N(C(=O)N(C)C)C2C(C)C)cc1 (centres unmarked)	21.3
COc1ccc(C(=O)COC(=O)CNC(=O)c2ccc(OC)cc2)cc1	-52.6
COc1cc(Br)cc(/C=C/c2ccc3cccc(O)c3n2)c1OC	11.4
c1csc(-c2csc3nc(CN4CCOCC4)nc(NCc4ccc5c(c4)OCO5)c23)c1	-21.5
Cc1cc(C(C)(C)C)cc(C)c1CC1=NCCN1.Cl	-7.46

From publication PMC4336329 (PLoS ONE, 2015)
